Laboratory results published in article PMC4068158.
These are yes or no findings as the source states them, for the method shown. In cells and extracts the contact can be indirect. Some entries that bind do so weakly or less than the wild type. For part of these data: Where a sequence is shown, tags or fusion partners need not be part of it.

Amino acid sequences for entries named in this document (tags omitted). A change or cut given only in a name is not applied to a line headed by its entry.
UniProt Q9QY76: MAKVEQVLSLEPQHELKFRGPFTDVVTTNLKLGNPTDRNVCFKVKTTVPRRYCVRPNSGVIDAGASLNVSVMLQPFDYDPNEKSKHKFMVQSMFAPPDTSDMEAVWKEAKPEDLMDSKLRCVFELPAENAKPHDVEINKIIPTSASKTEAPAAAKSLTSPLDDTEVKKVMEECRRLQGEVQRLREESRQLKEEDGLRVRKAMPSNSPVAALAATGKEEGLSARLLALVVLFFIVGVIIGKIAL
UniProt O95292: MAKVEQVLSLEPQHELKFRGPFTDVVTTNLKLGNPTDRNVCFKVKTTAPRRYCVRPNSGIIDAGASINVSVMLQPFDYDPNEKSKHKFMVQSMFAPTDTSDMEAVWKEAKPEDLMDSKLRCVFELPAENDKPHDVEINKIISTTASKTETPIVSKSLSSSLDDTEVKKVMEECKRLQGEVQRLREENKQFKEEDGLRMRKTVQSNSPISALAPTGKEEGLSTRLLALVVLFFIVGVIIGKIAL
UniProt O54984: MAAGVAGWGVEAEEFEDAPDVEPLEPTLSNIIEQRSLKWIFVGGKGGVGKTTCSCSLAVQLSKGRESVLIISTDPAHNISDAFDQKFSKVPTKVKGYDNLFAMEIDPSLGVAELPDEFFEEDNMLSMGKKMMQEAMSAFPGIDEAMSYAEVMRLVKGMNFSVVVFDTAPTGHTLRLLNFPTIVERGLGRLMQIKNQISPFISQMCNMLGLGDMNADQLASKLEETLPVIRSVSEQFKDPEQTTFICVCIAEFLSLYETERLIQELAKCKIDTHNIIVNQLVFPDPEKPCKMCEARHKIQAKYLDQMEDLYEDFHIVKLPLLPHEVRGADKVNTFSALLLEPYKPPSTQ

T1: Flag-VAPA wild type (human) (UniProt Q9P0L0)
T1 sequence: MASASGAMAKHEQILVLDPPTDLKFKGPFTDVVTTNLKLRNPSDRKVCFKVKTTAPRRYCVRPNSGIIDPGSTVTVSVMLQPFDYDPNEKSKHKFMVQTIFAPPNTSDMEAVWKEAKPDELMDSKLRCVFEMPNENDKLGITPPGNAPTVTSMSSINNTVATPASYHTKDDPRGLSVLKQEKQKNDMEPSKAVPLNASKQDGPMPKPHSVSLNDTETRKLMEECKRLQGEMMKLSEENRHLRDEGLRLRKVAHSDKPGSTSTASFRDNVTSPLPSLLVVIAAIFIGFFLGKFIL

B1: endogenous RAB3GAP1 (human cells) (protein, UniProt Q15042 1-981)
chain: MAADSEPESEVFEITDFTTASEWERFISKVEEVLNDWKLIGNSLGKPLEKGIFTSGTWEEKSDEISFADFKFSVTHHYLVQESTDKEGKDELLEDVVPQSMQDLLGMNNDFPPRAHCLVRWYGLREFVVIAPAAHSDAVLSESKCNLLLSSVSIALGNTGCQVPLFVQIHHKWRRMYVGECQGPGVRTDFEMVHLRKVPNQYTHLSGLLDIFKSKIGCPLTPLPPVSIAIRFTYVLQDWQQYFWPQQPPDIDALVGGEVGGLEFGKLPFGACEDPISELHLATTWPHLTEGIIVDNDVYSDLDPIQAPHWSVRVRKAENPQCLLGDFVTEFFKICRRKESTDEILGRSAFEEEGKETADITHALSKLTEPASVPIHKLSVSNMVHTAKKKIRKHRGVEESPLNNDVLNTILLFLFPDAVSEKPLDGTTSTDNNNPPSESEDYNLYNQFKSAPSDSLTYKLALCLCMINFYHGGLKGVAHLWQEFVLEMRFRWENNFLIPGLASGPPDLRCCLLHQKLQMLNCCIERKKARDEGKKTSASDVTNIYPGDAGKAGDQLVPDNLKETDKEKGEVGKSWDSWSDSEEEFFECLSDTEELKGNGQESGKKGGPKEMANLRPEGRLYQHGKLTLLHNGEPLYIPVTQEPAPMTEDLLEEQSEVLAKLGTSAEGAHLRARMQSACLLSDMESFKAANPGCSLEDFVRWYSPRDYIEEEVIDEKGNVVLKGELSARMKIPSNMWVEAWETAKPIPARRQRRLFDDTREAEKVLHYLAIQKPADLARHLLPCVIHAAVLKVKEEESLENISSVKKIIKQIISHSSKVLHFPNPEDKKLEEIIHQITNVEALIARARSLKAKFGTEKCEQEEEKEDLERFVSCLLEQPEVLVTGAGRGHAGRIIHKLFVNAQRAAAMTPPEEELKRMGSPEERRQNSVSDFPPPAGREFILRTTVPRPAPYSKALPQRMYSVLTKEDFRLAGAFSSDTSFF
B2: endogenous WDR44 (human cells) (protein, UniProt Q5JSH3 1-913)
chain: MASESDTEEFYDAPEDVHLGGGYPVGSPGKVGLSTFKETENTAYKVGNESPVQELKQDVSKKIIESIIEESQKVLQLEDDSLDSKGKELSDQATASPIVARTDLSNIPGLLAIDQVLPEESQKAESQNTFEETELELKKCFPSDETCEKPVDETTKLTQTSSTEQLNVLETETEVLNKEAVEVKGGGDVLEPVSSDSLSTKDFAAVEEVAPAKPPRHLTPEPDIVASTKKPVPARPPPPTNFPPPRPPPPSRPAPPPRKRKSELEFETLKTPDIDVPKENITSDSLLTASMASESTVKDSQPSLDLASATSGDKIVTAQENGKAPDGQTVAGEVMGPQRPRSNSGRELTDEEILASVMIKNLDTGEEIPLSLAEEKLPTGINPLTLHIMRRTKEYVSNDAAQSDDEEKLQSQPTDTDGGRLKQKTTQLKKFLGKSVKRAKHLAEEYGERAINKVKSVRDEVFHTDQDDPSSSDDEGMPYTRPVKFKAAHGFKGPYDFDQIKVVQDLSGEHMGAVWTMKFSHCGRLLASAGQDNVVRIWALKNAFDYFNNMRMKYNTEGRVSPSPSQESLSSSKSDTDTGVCSGTDEDPDDKNAPFRQRPFCKYKGHTADLLDLSWSKNYFLLSSSMDKTVRLWHISRRECLCCFQHIDFVTAIAFHPRDDRYFLSGSLDGKLRLWNIPDKKVALWNEVDGQTKLITAANFCQNGKYAVIGTYDGRCIFYDTEHLKYHTQIHVRSTRGRNKVGRKITGIEPLPGENKILVTSNDSRIRLYDLRDLSLSMKYKGYVNSSSQIKASFSHDFTYLVSGSEDKYVYIWSTYHDLSKFTSVRRDRNDFWEGIKAHNAVVTSAIFAPNPSLMLSLDVQSEKSEGNEKSEDAEVLDATPSGIMKTDNTEVLLSADFTGAIKVFVNKRKNVS

Legend:
[1] = biological target: endogenous VAPB (mouse brain) (mouse (endogenous in brain)) (UniProt Q9QY76); test: co-IP; endogenous VAPB immunoprecipitated from mouse brain extracts with anti-VAPB antibodies cross-linked to Protein A-Sepharose, uncoupled beads as control; buffer A, 4°C
[2] = biological target: Flag-VAPB full length wild type (human) (UniProt O95292); test: co-IP; anti-Flag beads on lysates of HeLa cells expressing Flag-VAPB; immunoblot
[3] = biological target: Flag-VAPB full length K87D M89D (human) (UniProt O95292); test: co-IP; anti-Flag M2 beads on lysates of U2OS cells expressing the Flag-tagged bait (transfected or tetracycline-induced); buffer A (50 mM HEPES/KOH pH 7.2, 5 mM Mg(OAc)2, 70 mM KOAc, 0.2% Triton X-100, 10% glycerol, 0.2 mM EDTA), 4°C, 2 hr; endogenous prey by immunoblot; cells untreated, treated with MG132 or with siRNA (FAF1, p97, ASNA1, luciferase) as indicated
[4] = biological target: Flag-VAPB full length wild type (human) (UniProt O95292); test: as above
[5] = biological target: T1, Flag-VAPA wild type (human); test: as above

Row | Molecule | binding [1] | binding [2] | binding [3] | binding [4] | binding [5]
1 | endogenous ASNA1 (mouse brain) (from UniProt O54984 1-348) | binds |  |  |  | 
2 | B1 |  | binds | no binding | binds | binds
3 | B2 |  | binds | no binding | binds | binds
